The whole screen tested about 310,000 compounds, of which about 2,200 (0.71%) showed an effect of 50% or more. The effect is printed as a negative number. Some of the results follow.
target: human ether-à-go-go-related gene (hERG) potassium channel (human, UniProt Q12809); experiment: primary screen, population patch clamp on CHO cells stably expressing hERG
Sequence (Q12809 whole entry, looked up): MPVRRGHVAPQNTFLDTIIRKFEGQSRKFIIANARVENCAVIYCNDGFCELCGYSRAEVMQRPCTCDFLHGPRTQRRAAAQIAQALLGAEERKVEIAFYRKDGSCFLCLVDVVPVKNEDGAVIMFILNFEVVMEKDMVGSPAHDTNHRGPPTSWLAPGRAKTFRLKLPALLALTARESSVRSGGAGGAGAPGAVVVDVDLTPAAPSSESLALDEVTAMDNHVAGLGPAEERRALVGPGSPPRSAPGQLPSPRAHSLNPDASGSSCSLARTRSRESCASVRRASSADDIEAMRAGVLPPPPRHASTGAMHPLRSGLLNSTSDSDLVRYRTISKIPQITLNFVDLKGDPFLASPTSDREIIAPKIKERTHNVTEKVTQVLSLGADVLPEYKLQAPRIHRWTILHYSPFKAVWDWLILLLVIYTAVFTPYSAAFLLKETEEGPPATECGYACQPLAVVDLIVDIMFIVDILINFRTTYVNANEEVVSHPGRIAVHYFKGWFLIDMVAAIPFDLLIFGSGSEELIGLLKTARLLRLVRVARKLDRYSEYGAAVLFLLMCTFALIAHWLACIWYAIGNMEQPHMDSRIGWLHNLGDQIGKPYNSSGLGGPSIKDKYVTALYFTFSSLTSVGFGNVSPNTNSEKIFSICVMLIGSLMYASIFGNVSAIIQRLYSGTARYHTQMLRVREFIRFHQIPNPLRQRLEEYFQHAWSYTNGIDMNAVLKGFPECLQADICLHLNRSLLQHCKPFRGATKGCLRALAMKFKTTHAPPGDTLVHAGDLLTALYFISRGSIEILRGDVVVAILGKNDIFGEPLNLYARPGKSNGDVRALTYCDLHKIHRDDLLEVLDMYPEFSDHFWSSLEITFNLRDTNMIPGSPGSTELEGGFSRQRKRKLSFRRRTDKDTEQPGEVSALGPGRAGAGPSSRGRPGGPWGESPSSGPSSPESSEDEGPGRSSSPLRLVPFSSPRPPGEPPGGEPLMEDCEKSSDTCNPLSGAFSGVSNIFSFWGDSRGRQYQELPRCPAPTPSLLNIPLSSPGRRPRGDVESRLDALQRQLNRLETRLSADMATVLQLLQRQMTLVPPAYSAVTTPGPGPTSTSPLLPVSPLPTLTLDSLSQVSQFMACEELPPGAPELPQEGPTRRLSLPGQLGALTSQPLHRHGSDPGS

| SMILES | hERG current change (%, negative = inhibition) at 1uM |
| --- | --- |
| CCOC(=O)c1ccccc1NS(=O)(=O)c1ccc(OCC)cc1 | 8.33% |
| CCN(CC#CCC1(O)c2ccccc2-c2ccccc21)CCO | 11.6% |
| CC(=O)N1c2ccccc2C2CCCC[C@@H]21 (stereo partly drawn) | 14.2% |
| Cc1ccc(C(=O)COC(=O)CCC(=O)Nc2ccccc2Cl)cc1[N+](=O)[O-] | 8.32% |
| Cc1cc(=O)oc2c(C)c(OCC(=O)N3CC[C@@]4(O)CCCC[C@H]4C3)ccc12 | 3.58% |
| N#CC1=C(N)Oc2n[nH]c(-c3ccc(F)cc3)c2C1c1cccc(OC(=O)N2CCOCC2)c1 (stereo not drawn) | 5.82% |
| Cc1ccc(S(=O)(=O)NNC(=O)c2ccoc2C)cc1 | -5.97% |
| CCN1CCN(c2cc(N3CCN(C(=O)c4ccco4)CC3)c3c4c(onc24)-c2ccccc2C3=O)CC1 | 9.64% |
| CC(=O)NC1=NN(C(C)=O)C(c2ccc(F)cc2)S1 (stereo not drawn) | 9.21% |
| O=C(CSc1nc2nn(-c3ccccc3)c(=O)c-2c2n1CCCCC2)c1ccc(O)c(O)c1 | 1.24% |
| CSCCC(NC(=O)c1ccc(=O)n(C)n1)c1nc2ccccc2[nH]1 (stereo not drawn) | -11% |
| CC1(C)OC(=O)C(=CNc2ccccc2)C(=O)O1 | 2.21% |
| CCN(CC)CC(=O)NC1CC(C)(C)Cc2c1cnn2-c1ccc(F)cc1 (stereo not drawn) | 16.2% |
| O=C(NCCCN1CCCC1=O)c1ccc2c(=O)n(Cc3ccco3)c(=S)[nH]c2c1 | 1.88% |
| Cc1cc(/C=N/NC(=O)C(=O)NCc2ccccn2)c(C)n1-c1cccc(Br)c1 | 3.67% |
| CN(CC(=O)N1CCN(c2ccccc2)CC1)C1CCCc2ccccc21 (stereo not drawn) | 5.75% |
| COC(=O)c1cc(S(=O)(=O)N2CCCC(C)C2)cn1C (stereo not drawn) | -5.67% |
| COC(=O)[C@@H](NC(=O)O[C@@H]1C(=O)c2ccc(OC)cc2O[C@H]1c1cccc(C(F)(F)F)c1)C(C)C | 15.9% |
| COc1ccccc1N(C)S(=O)(=O)c1ccc(C(=O)OCC(=O)NCC(F)(F)F)cc1 | 7.93% |
| COC(=O)/C=C/c1ccccc1S(=O)(=O)N(Cc1ccccc1)Cc1ccco1 | 6.83% |
| O=C1C2C3C=CC(C2C(=O)N1CCCO)C1C2C(=O)N(CCCO)C(=O)C2C31 (stereo not drawn) | 24.7% |

| SMILES | hERG current change (%, negative = inhibition) at 1uM |
| --- | --- |
| CC1=C(C(=O)Nc2ccccc2C)C(c2ccc(C)o2)C2=C(CCCC2=O)N1 (stereo not drawn) | 12.9% |
| Cc1cc(NC(=O)c2ccc(Cl)cc2)no1 | 10.4% |
| COc1cccc(CN(C)CC(=O)Nc2ccccc2N2CCOCC2)c1OC | 9.88% |
| CCN(CC(=O)NCc1cccs1)CC(=O)Nc1c(Cl)ccc(C)c1Cl | -1.97% |
| COc1ccc(NC(=S)NC2CCCCC2)c(OC)c1 | -3.22% |
| CCOC(=O)c1ccc(-n2ccnc2)c(NC(=O)c2ccc(C(C)(C)C)cc2)c1 | -1.35% |
| Cc1ccc(S(=O)(=O)Oc2cccc(N3C(=O)C4CC=CCC4C3=O)c2)cc1 (stereo not drawn) | -5.12% |
| COC(=O)CN(c1cccc(C)c1)S(=O)(=O)c1ccccc1 | -18.5% |
| CC1CCCN(CCC(=O)Nc2ccc(Br)cc2)C1.Cl (stereo not drawn) | -22.8% |
| CC(=O)N1c2c(cc(Br)cc2S(=O)(=O)NCC2COc3ccccc3O2)CC1C (stereo not drawn) | 2.24% |
| CC(CCc1ccccc1)NC(=O)CN1CCc2ccccc2C1 (stereo not drawn) | 6.79% |
| CCn1ncc([N+](=O)[O-])c1C(=O)Nc1c(C)nn(Cc2ccc(F)cc2)c1C | -20.6% |
| Cc1ccccc1C(=O)NC1CCSC1=O (stereo not drawn) | -7.66% |
| CCC(C)(C(=O)NC1CCCCC1)N(C(=O)CNC(=O)c1ccccc1)c1c(C)n(C)n(-c2ccccc2)c1=O (stereo not drawn) | 10.7% |
| CC1=NN(c2cccc(Cl)c2)C(=O)C1 | 5.82% |
| CN(Cc1ccccc1)S(=O)(=O)c1cccc2nsnc12 | -0.741% |
| COc1ccc(/C=C2\SC(=O)N(CC(=O)Nc3cccnc3)C2=O)cc1OC | 16.9% |
| CCc1ccccc1N(CC(=O)N1CCN(c2ccc(F)cc2)CC1)S(C)(=O)=O | 0.124% |
| CCn1c(SCC(=O)c2ccc(Cl)cc2)nnc1-c1ccoc1C | -1.96% |
| CC(=O)O.CN(C)Cc1cn(CCC(=O)O)c2ccccc12 | 10.9% |
| Cn1c(SCC(=O)N/N=C/C=C/c2ccccc2[N+](=O)[O-])nc2ccccc21 | 2.89% |
